According to patent US10299477B2 (priority 2015, dated 2019):

Tested on: Colletotrichum orbiculare
Details: 250 ppm, sprayed 2.5 ml/pot before inoculation; evaluated 6-10 days after inoculation

| Structure (SMILES) | Test H (control value class, anthracnose on cucumber) |
| --- | --- |
| CCN1C(=O)CCC(c2cc(OC)cc(F)c2Cl)=C1c1c(F)cc(F)cc1F [Compound 614] | H (H shows more than 50% of control values) |
| CCOc1cc(F)c(-c2c(-c3cccc(F)c3C)cc(Br)c(=O)n2CC)c(F)c1 [Compound 712] | H (H shows more than 50% of control values) |
| CCN1C(=O)CCC(c2ccc(F)cc2Cl)=C1c1c(F)cc(F)cc1F [Compound 573] | H (H shows more than 50% of control values) |
| Cn1c(-c2c(F)cc(F)cc2F)c(-c2ccccc2Cl)cc(Br)c1=O [Compound 720] | H (H shows more than 50% of control values) |
| COc1cc(F)c(-c2c(-c3cccc(OC)c3Cl)ccc(=O)n2C)c(F)c1 [Compound 663] | H (H shows more than 50% of control values) |
| CCOc1cc(F)c(-c2c(-c3cccc(OC)c3Cl)cc(C)c(=O)n2C)c(F)c1 [Compound 673] | H (H shows more than 50% of control values) |
| COc1cc(F)c(-c2c(-c3ccccc3Cl)cc(Br)c(=O)n2C)c(F)c1 [Compound 732] | H (H shows more than 50% of control values) |
| CCn1c(-c2c(F)cc(OC)cc2F)c(-c2ccc(F)cc2Cl)cc(C)c1=O [Compound 599] | H (H shows more than 50% of control values) |
| CCn1c(-c2c(F)cc(OCC(F)(F)F)cc2F)c(-c2cccc(F)c2Cl)cc(Cl)c1=O [Compound 727] | H (H shows more than 50% of control values) |
| CCN1C(=O)CCC(c2ccc(Br)cc2Cl)=C1c1c(F)cc(F)cc1F [Compound 622] | H (H shows more than 50% of control values) |
| CCn1c(-c2c(F)cc(OC)cc2F)c(-c2cccc(F)c2C)cc(Br)c1=O [Compound 711] | H (H shows more than 50% of control values) |
| CCOc1cc(F)c(-c2c(-c3cc(F)cc(F)c3F)ccc(=O)n2CC)c(F)c1 [Compound 579] | H (H shows more than 50% of control values) |
| CCn1c(-c2c(F)cc(F)cc2F)c(-c2ccc(Br)cc2Cl)ccc1=O [Compound 624] | H (H shows more than 50% of control values) |
| CCn1c(-c2c(F)cccc2F)c(-c2ccc(OC)cc2Cl)cc(Cl)c1=O [Compound 736] | H (H shows more than 50% of control values) |
| Cc1cc(F)c(-c2c(-c3cc(F)ccc3Cl)cc(Cl)c(=O)n2C)c(F)c1 [Compound 691] | H (H shows more than 50% of control values) |
| CCn1c(-c2c(F)cccc2F)c(-c2cccc(F)c2Cl)cc(Br)c1=O [Compound 745] | H (H shows more than 50% of control values) |
| CCOc1cc(F)c(-c2c(-c3ccc(F)cc3Cl)ccc(=O)n2C)c(F)c1 [Compound 612] | H (H shows more than 50% of control values) |
| CCn1c(-c2c(F)cc(F)cc2F)c(-c2cc(F)c(F)cc2F)cc(Cl)c1=O [Compound 636] | H (H shows more than 50% of control values) |
| CCn1c(-c2c(F)cc(Cl)cc2F)c(-c2cc(F)ccc2Cl)cc(Cl)c1=O [Compound 602] | H (H shows more than 50% of control values) |
| COc1cc(F)c(-c2c(-c3ccccc3Cl)cc(C)c(=O)n2C)c(F)c1 [Compound 733] | H (H shows more than 50% of control values) |
| Cc1cc(-c2cc(F)cc(F)c2Cl)c(-c2c(F)cc(F)cc2F)n(C)c1=O [Compound 694] | H (H shows more than 50% of control values) |
| CCOc1cc(F)c(-c2c(-c3cccc(F)c3Cl)ccc(=O)n2CC)c(F)c1 [Compound 657] | H (H shows more than 50% of control values) |

Same assay, conditions: in vivo

| Structure (SMILES) | Test H (control value class) | Test H control value |
| --- | --- | --- |
| COc1ccc(-c2cc(Br)c(=O)n(C)c2-c2c(F)cc(F)cc2F)c(Cl)c1 [Compound 767] | H (key: H shows more than 50% of control values; L shows 50% or less of control values) |  |
| COc1cc(F)c(-c2c(-c3cccc(F)c3Cl)cc(Cl)c(=O)n2C)c(F)c1 [Compound 504] | H (key: H shows more than 50% of control values; L shows 50% or less of control values) |  |
| CCn1c(-c2c(F)cc(OC)cc2F)c(-c2cc(F)cc(F)c2Br)cc(Br)c1=O [Compound 820] | H (key: H shows more than 50% of control values; L shows 50% or less of control values) |  |
| Cc1cc(-c2cc(F)ccc2F)c(-c2c(F)cccc2F)n(C)c1=O [Compound 499] | H (key: H shows more than 50% of control values; L shows 50% or less of control values) |  |
| CCn1c(-c2c(F)cc(OC)cc2F)c(-c2cc(F)ccc2Cl)cc(C)c1=O [Compound 479] | H (key: H shows more than 50% of control values; L shows 50% or less of control values) |  |
| CCn1c(-c2c(F)cccc2F)c(-c2cc(OCC#N)ccc2Cl)ccc1=O [Compound 98] |  | H (key: H shows more than 50% of control values; L shows 50% or less of control values) |
| CCn1c(-c2c(F)cc(OC)cc2F)c(-c2ccccc2Cl)cc(I)c1=O [Compound 822] | H (key: H shows more than 50% of control values; L shows 50% or less of control values) |  |
| CCn1c(-c2c(F)cccc2F)c(-c2cc(F)ccc2F)cc(Cl)c1=O [Compound 481] | H (key: H shows more than 50% of control values; L shows 50% or less of control values) |  |
| COc1cccc(-c2cc(Cl)c(=O)n(C)c2-c2c(F)cccc2F)c1Cl [Compound 785] | H (key: H shows more than 50% of control values; L shows 50% or less of control values) |  |
| CCn1c(-c2c(F)cccc2F)c(-c2cccc(Cl)c2)ccc1=O [Compound 171] |  | H (key: H shows more than 50% of control values; L shows 50% or less of control values) |
| COc1ccc(-c2cc(C)c(=O)n(C)c2-c2c(F)cccc2F)c(Cl)c1 [Compound 749] | L (key: H shows more than 50% of control values; L shows 50% or less of control values) |  |
| Cn1c(-c2c(F)cccc2F)c(-c2cc(F)cc(F)c2F)cc(Cl)c1=O [Compound 442] | H (key: H shows more than 50% of control values; L shows 50% or less of control values) |  |
| COc1cccc(-c2cc(Br)c(=O)n(C)c2-c2c(F)cccc2F)c1Cl [Compound 786] | H (key: H shows more than 50% of control values; L shows 50% or less of control values) |  |
| CCn1c(-c2c(F)cccc2F)c(-c2cc(OC)cc(OC)c2Cl)ccc1=O [Compound 32] |  | H (key: H shows more than 50% of control values; L shows 50% or less of control values) |
| CCn1c(-c2c(F)cc(F)cc2F)c(-c2cccc(F)c2Cl)cc(Br)c1=O [Compound 487] | H (key: H shows more than 50% of control values; L shows 50% or less of control values) |  |
| CCn1c(-c2c(F)cc(F)cc2F)c(-c2cc(F)cc(F)c2)cc(Br)c1=O [Compound 797] | H (key: H shows more than 50% of control values; L shows 50% or less of control values) |  |

| Structure (SMILES) | Test H (control value class) | Test H control value |
| --- | --- | --- |
| Cn1c(-c2c(F)cccc2F)c(-c2ccc(Cl)cc2F)cc(Cl)c1=O [Compound 419] | L (key: H shows more than 50% of control values; L shows 50% or less of control values) |  |
| CCn1c(-c2c(F)cc(F)cc2F)c(-c2cc(OC)ccc2Cl)ccc1=O [Compound 403] | H (key: H shows more than 50% of control values; L shows 50% or less of control values) |  |
| CCN1C(=O)CCC(c2ccccc2F)=C1c1c(F)cc(F)cc1F [Compound 514] | H (key: H shows more than 50% of control values; L shows 50% or less of control values) |  |
| Cn1c(-c2c(F)cccc2F)c(-c2c(F)cccc2Cl)cc(Cl)c1=O [Compound 405] | H (key: H shows more than 50% of control values; L shows 50% or less of control values) |  |
| CCn1c(-c2c(F)cc(F)cc2F)c(-c2cccc(OCC#N)c2Cl)cc(Cl)c1=O [Compound 810] | H (key: H shows more than 50% of control values; L shows 50% or less of control values) |  |
| Cc1cc(-c2cccc(F)c2Cl)c(-c2c(F)cccc2F)n(C)c1=O [Compound 754] | H (key: H shows more than 50% of control values; L shows 50% or less of control values) |  |
| CCn1c(-c2c(F)cccc2F)c(-c2cccc(F)c2Cl)ccc1=O [Compound 506] | H (key: H shows more than 50% of control values; L shows 50% or less of control values) |  |
| CCOc1ccc(Cl)c(-c2cc(C)c(=O)n(CC)c2-c2c(F)cccc2F)c1 [Compound 802] | H (key: H shows more than 50% of control values; L shows 50% or less of control values) |  |
| CCn1c(-c2c(F)cccc2F)c(-c2cc(F)ccc2Cl)cc(F)c1=O [Compound 512] | H (key: H shows more than 50% of control values; L shows 50% or less of control values) |  |
| CCn1c(-c2c(F)cc(F)cc2F)c(-c2cccc(OCOC)c2Cl)cc(Cl)c1=O [Compound 811] | H (key: H shows more than 50% of control values; L shows 50% or less of control values) |  |
| CCn1c(-c2c(F)cc(OC)cc2F)c(-c2ccccc2)cc(Cl)c1=O [Compound 773] | H (key: H shows more than 50% of control values; L shows 50% or less of control values) |  |
| CCn1c(-c2c(F)cc(F)cc2F)c(-c2cc(F)cc(F)c2Br)cc(Cl)c1=O [Compound 813] | H (key: H shows more than 50% of control values; L shows 50% or less of control values) |  |
| CCn1c(-c2c(F)cc(OC)cc2F)c(-c2cc(F)cc(F)c2)cc(Br)c1=O [Compound 799] | H (key: H shows more than 50% of control values; L shows 50% or less of control values) |  |
| COc1cc(OC)c(Cl)c(-c2ccc(=O)n(C)c2-c2c(F)cc(F)cc2F)c1 [Compound 136, 5-(2-chloro-3,5-dimethoxyphenyl)-1-methyl-6-(2,4,6-trifluorophenyl)pyridine-2(1H)-one] |  | H (key: H shows more than 50% of control values; L shows 50% or less of control values) |
| COc1cc(F)c(-c2c(-c3cc(F)ccc3Cl)cc(C)c(=O)n2C)c(F)c1 [Compound 759] | H (key: H shows more than 50% of control values; L shows 50% or less of control values) |  |
